From the supplement of paper PMC8728848
This is one part of the list.

What was measured:
Test in all cases: glycan array binding signal (z-score within array); higher = stronger binding
Conditions in all cases: glycan notation: IUPAC condensed, linker removed
[1] = molecular target: Man(a1-3)[Man(a1-6)]Man(b1-4)GlcNAc(b1-4)[Fuc(a1-6)]GlcNAc
How it was run: (§1)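 Arrays were curated from the Consortium for Functional Glycomics database, 3228 in total, and kept only where the protein sequence was available. Binding is expressed as a within-array Z-score. This score was averaged across arrays of the same protein sequence at different concentrations or buffers and across linkers, and negative values can be read as non-binding.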

[2] = molecular target: Man(a1-6)Man
How it was run: as §1

[3] = molecular target: Man(a1-6)Man(b1-4)GlcNAc(b1-4)GlcNAc
How it was run: as §1

[4] = molecular target: Man(b1-4)GlcNAc
How it was run: as §1

[5] = molecular target: Man(b1-4)Man(b1-4)Man(b1-4)Man
How it was run: as §1

[6] = molecular target: Man(b1-4)Man(b1-4)Man(b1-4)Man(b1-4)Man
How it was run: as §1

[7] = molecular target: Man(b1-4)Man(b1-4)Man(b1-4)Man(b1-4)Man(b1-4)Man
How it was run: as §1

[8] = molecular target: Man6P(a1-3)Man(a1-3)Man(a1-3)Man(a1-2)Man
How it was run: as §1

[9] = molecular target: Neu(a2-3)Gal(b1-4)Glc
How it was run: as §1

[10] = molecular target: Neu(a2-3)Gal(b1-4)GlcNAc(b1-3)Gal(b1-4)[Fuc(a1-3)]GlcNAc(b1-3)Gal(b1-4)Glc
How it was run: as §1

[11] = molecular target: Neu(a2-3)Gal(b1-4)GlcNAc6S(b1-3)Gal(b1-4)Glc
How it was run: as §1

[12] = molecular target: Neu(a2-3)Gal(b1-4)[Fuc(a1-3)]GlcNAc(b1-3)Gal(b1-4)Glc
How it was run: as §1

[13] = molecular target: Neu(a2-3)Gal(b1-4)[Fuc(a1-3)]GlcNAc6S(b1-3)Gal(b1-4)Glc
How it was run: as §1

[14] = molecular target: Neu(a2-3)Gal6S(b1-4)[Fuc(a1-3)]GlcN(b1-3)Gal(b1-4)Glc
How it was run: as §1

[15] = molecular target: Neu(a2-6)Gal(b1-4)Glc
How it was run: as §1

[16] = molecular target: Neu4Ac5Ac(a2-3)Gal(b1-4)Glc
How it was run: as §1

[17] = molecular target: Neu5Ac(a2-3)Gal
How it was run: as §1

[18] = molecular target: Neu5Ac(a2-3)Gal(b1-3)GalNAc(b1-4)Gal(b1-4)Glc
How it was run: as §1

[19] = molecular target: Neu5Ac(a2-3)Gal(b1-3)GalNAc(b1-4)[Neu5Ac(a2-3)]Gal(b1-4)Glc
How it was run: as §1

[20] = molecular target: Neu5Ac(a2-3)Gal(b1-3)GalNAc(b1-4)[Neu5Ac(a2-8)Neu5Ac(a2-3)]Gal(b1-4)Glc
How it was run: as §1

[21] = molecular target: Neu5Ac(a2-3)Gal(b1-3)GlcNAc(b1-3)Gal(b1-4)Glc
How it was run: as §1

[22] = molecular target: Neu5Ac(a2-3)Gal(b1-3)GlcNAc(b1-3)[Fuc(a1-3)[Gal(b1-4)]GlcNAc(b1-6)]Gal(b1-4)Glc
How it was run: as §1

[23] = molecular target: Neu5Ac(a2-3)Gal(b1-3)[Fuc(a1-4)]GlcNAc
How it was run: as §1

[24] = molecular target: Neu5Ac(a2-3)Gal(b1-3)[Fuc(a1-4)]GlcNAc(b1-3)Gal(b1-4)Glc
How it was run: as §1

[25] = molecular target: Neu5Ac(a2-3)Gal(b1-3)[Neu5Ac(a2-6)]GalNAc
How it was run: as §1

[26] = molecular target: Neu5Ac(a2-3)Gal(b1-3)[Neu5Ac(a2-6)]GlcNAc(b1-3)Gal(b1-4)Glc
How it was run: as §1

[27] = molecular target: Neu5Ac(a2-3)Gal(b1-4)Glc
How it was run: as §1

[28] = molecular target: Neu5Ac(a2-3)Gal(b1-4)GlcNAc
How it was run: as §1

[29] = molecular target: Neu5Ac(a2-3)Gal(b1-4)GlcNAc(b1-2)Man(a1-3)[Neu5Ac(a2-3)Gal(b1-4)GlcNAc(b1-2)Man(a1-6)]Man(b1-4)GlcNAc(b1-4)[Fuc(a1-6)]GlcNAc
How it was run: as §1

[30] = molecular target: Neu5Ac(a2-3)Gal(b1-4)GlcNAc(b1-3)Gal(b1-4)Glc
How it was run: as §1

[31] = molecular target: Neu5Ac(a2-3)Gal(b1-4)GlcNAc6S(b1-3)Gal6S(b1-3)GlcNAc6S
How it was run: as §1

[32] = molecular target: Neu5Ac(a2-3)Gal(b1-4)[Fuc(a1-3)]GlcNAc(b1-3)Gal
How it was run: as §1

[33] = molecular target: Neu5Ac(a2-3)Gal(b1-4)[Fuc(a1-3)]GlcNAc(b1-3)Gal(b1-4)Glc
How it was run: as §1

[34] = molecular target: Neu5Ac(a2-3)Gal(b1-4)[Fuc(a1-3)]GlcNAc(b1-3)Gal(b1-4)[Fuc(a1-3)]GlcNAc(b1-3)Gal(b1-4)Glc
How it was run: as §1

[35] = molecular target: Neu5Ac(a2-3)Gal(b1-4)[Fuc(a1-3)]GlcNAc6S(b1-3)Gal(b1-4)Glc
How it was run: as §1

[36] = molecular target: Neu5Ac(a2-3)Gal(b1-4)[Fuc(a1-3)]GlcNAc6S(b1-3)Gal6S(b1-3)GlcNAc6S
How it was run: as §1

[37] = molecular target: Neu5Ac(a2-3)Gal6S(b1-4)[Fuc(a1-3)]GlcNAc(b1-3)Gal(b1-4)Glc
How it was run: as §1

[38] = molecular target: Neu5Ac(a2-3)Gal6S(b1-4)[Fuc(a1-3)]GlcNAc6S(b1-3)Gal(b1-4)Glc
How it was run: as §1

Measured: glycan array binding signal (z-score)

B1: CLECSF8 (Mus musculus), Q9Z2H6 (protein)
chain: HYFLRWTRGSVVKLSDYHTRVTCIREEPQPGATGGTWTCCPVSWRAFQSNCYFPLNDNQTWHESERNCSGMSSHLVTINTEAEQNFVTQLLDKRFSYFLGLADENVEGQWQWVDKTPFNPHTVFWEKGESNDFMEEDCVVLVHVHEKWVWNDFPCHFEVRRICKLPGITFNWKPSK
0.763: [13]
-0.253: [27]
1.14: [11]
1.18: [7]
-0.038: [36]
1.46: [2] | [6]
0.312: [16]
1.07: [5]
-0.424: all other assays above
